The campaign covered roughly 310,000 compounds. About 2,200 (0.71%) showed an effect of 50% or more. Effects have a minus sign here. This is one part of the list.
Biological target: human ether-à-go-go-related gene (hERG) potassium channel (human, UniProt Q12809)
Assay: primary screen, population patch clamp on CHO cells stably expressing hERG

Sequence of human ether-à-go-go-related gene (hERG) potassium channel (Q12809 whole entry, looked up): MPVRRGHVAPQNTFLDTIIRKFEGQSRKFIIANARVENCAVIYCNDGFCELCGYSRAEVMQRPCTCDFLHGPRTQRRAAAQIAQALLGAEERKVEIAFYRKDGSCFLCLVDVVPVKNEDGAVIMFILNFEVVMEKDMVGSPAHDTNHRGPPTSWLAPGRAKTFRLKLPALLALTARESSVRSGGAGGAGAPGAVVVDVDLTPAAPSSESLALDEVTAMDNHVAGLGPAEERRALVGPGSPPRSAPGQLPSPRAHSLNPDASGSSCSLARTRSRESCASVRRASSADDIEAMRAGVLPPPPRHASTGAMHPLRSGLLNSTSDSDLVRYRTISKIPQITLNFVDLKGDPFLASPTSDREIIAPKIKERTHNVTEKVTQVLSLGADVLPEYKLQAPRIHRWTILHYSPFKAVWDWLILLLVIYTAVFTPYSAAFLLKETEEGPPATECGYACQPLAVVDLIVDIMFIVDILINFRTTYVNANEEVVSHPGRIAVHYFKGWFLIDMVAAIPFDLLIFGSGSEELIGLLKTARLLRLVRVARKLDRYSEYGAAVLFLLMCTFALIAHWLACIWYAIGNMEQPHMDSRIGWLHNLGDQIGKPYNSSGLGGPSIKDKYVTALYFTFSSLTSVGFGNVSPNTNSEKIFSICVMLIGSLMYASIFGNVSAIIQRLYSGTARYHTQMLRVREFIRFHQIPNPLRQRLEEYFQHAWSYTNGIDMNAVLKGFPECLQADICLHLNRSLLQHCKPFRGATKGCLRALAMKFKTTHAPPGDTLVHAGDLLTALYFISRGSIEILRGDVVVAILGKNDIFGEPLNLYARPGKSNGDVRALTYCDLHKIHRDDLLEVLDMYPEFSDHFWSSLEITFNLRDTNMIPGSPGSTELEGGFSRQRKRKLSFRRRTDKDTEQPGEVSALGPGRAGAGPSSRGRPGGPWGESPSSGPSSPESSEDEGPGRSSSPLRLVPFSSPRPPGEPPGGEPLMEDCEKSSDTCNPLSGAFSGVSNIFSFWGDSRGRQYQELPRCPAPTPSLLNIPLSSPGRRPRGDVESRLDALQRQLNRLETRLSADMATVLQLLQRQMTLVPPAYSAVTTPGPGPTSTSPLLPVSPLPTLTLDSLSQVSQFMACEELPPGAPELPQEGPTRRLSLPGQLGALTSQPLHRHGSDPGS

Point of comparison: `Cc1ccc2nc(NCc3ccco3)c(C=NCc3ccco3)c(=O)n2c1`, “hERG current change (%, negative = inhibition) at 1uM” value 12.8%. Against it:
- Br.COCCn1c(-c2ccccc2)csc1=Nc1cccnc1 — lower, -10.8%
- COc1ccc(N2CCN(C(=O)c3ccc(CNS(=O)(=O)c4cccc(OC)c4)cc3)CC2)cc1 — lower, 8.36%
- O=C(NC1CCCCC1)N1CCC(n2c(=O)[nH]c3ccccc32)CC1 — lower, 4.29%
- CC(=O)Nc1ccc(Oc2ccc3c(c2)C(=O)NC3=O)cc1 — higher, 20.8%
- CCc1ccc(CNc2ccc(N3CCN(C(C)=O)CC3)cc2)cc1 — lower, -0.228%
- CCOc1cc(/C=N/NC(=O)OC)ccc1OCCSc1ccc(Cl)cc1 — lower, 3.82%
- Cc1ccc2cc(C=O)c(N3CCOCC3)nc2c1C — higher, 16.1%
- CN1CCSc2ccc(C(=O)NCc3ccccc3)cc21 — lower, 0.0917%
- CCC1CCCCN1CCNC(=O)C1CCN(S(=O)(=O)c2cccc3nsnc23)CC1 (stereo not shown) — lower, 1.72%
- COc1ccc([C@H]2[C@H](C(C)=O)N3N=Cc4ccccc4C3C23C(=O)OC(C)(C)OC3=O)cc1 (stereo partly shown) — lower, -1.51%
- CC(=O)c1c(C)[nH]c(C(=O)CSc2nnc(CN3CCCCCC3=O)n2-c2ccccn2)c1C — higher, 13.1%
- CC(C(=O)c1c[nH]c2ccccc12)N1CCc2ccccc2C1 (stereo not shown) — lower, 5.04%
- COCC(=O)NC1CCN(C(=O)Nc2ccc(Br)cc2)CC1 — lower, 1.87%
- COc1ccc(C(CC(=O)O)NC(=O)c2ccco2)cc1 (stereo not shown) — lower, 9.28%
- CCOc1ccc(-n2c(=O)c3c4c(sc3n(CC(=O)NCC3CCCO3)c2=O)CCC4)cc1 (stereo not shown) — lower, 11%
- NC(=O)C1CCN(C(=O)CSc2nc3c(c(-c4ccccc4)n2)CCCC3)CC1 — lower, -3.4%
- COc1ccc(Nc2nc(N(C)c3ccccc3)nc(N)c2[N+](=O)[O-])cc1 — lower, 10.5%
- Cc1ccc(C(=O)NCC(c2ccco2)N2CCOCC2)cc1 (stereo not shown) — lower, 5.57%
- O=S(=O)(NC(=S)c1ccccc1)c1ccc(Cl)cc1 — higher, 13.9%
- O=C(NCCNc1nccc(C(F)(F)F)n1)c1cccs1 — lower, 7.73%
- O=[N+]([O-])c1cccc(NC(=S)NCc2ccncc2)c1 — lower, 8.67%
- O=C(c1cccc(S(=O)(=O)N2CCOCC2)c1)N(CCc1ccccc1)Cc1ccccc1 — lower, -1.79%
- COc1ccc(C(=O)NC(=S)N2CCN(c3ccccc3OC)CC2)cc1OC — higher, 22.4%
- Cc1nnc(SCC(=O)N2c3ccccc3CC2C)[nH]c1=O (stereo not shown) — higher, 16%
- COc1ccc([N+](=O)[O-])cc1NC(=O)CSc1ncccn1 — lower, 8.53%
- O=C(NCc1ccco1)NC12CC3CC(CC(C3)C1)C2 — higher, 15.4%
- CCOC(=O)C(C)(C)N(Cc1cccc(C)c1)S(=O)(=O)c1ccc(Cl)c([N+](=O)[O-])c1 — higher, 14.4%
- O=C(COc1ccc(Br)cc1)Nc1cc(S(=O)(=O)N2CCCCC2)ccc1N1CCCCC1 — lower, 11.7%
- OC1(c2cccc(C(F)(F)F)c2)CCN(c2ncnc3c2[nH]c2ccccc23)CC1 — higher, 17.8%
- Cc1cc(OC(=O)Cc2cccc3ccccc23)c([N+](=O)[O-])c(=O)[nH]1 — higher, 13.5%
- COC(=O)CCN1CCC(c2cc(-c3cccc(C(F)(F)F)c3)n[nH]2)CC1 — lower, -22%
- O=C(NCc1ccccc1Cl)c1ccc2c(c1)SC1=NS(=O)(=O)CCN12 — lower, 7.72%
- O=S(=O)(Nc1ccc(Nc2ccccc2)cc1)c1ccc(F)cc1 — lower, 9.61%
- CC1(C)Cc2ccccc2-c2c1c(=O)n(Cc1ccccc1)c1nnnn21 — lower, -3.3%
- CNC(=O)C(NC(=O)CNC(=O)c1ccc(Cl)cc1)C(C)(C)C (stereo not shown) — higher, 17.7%
- CC(=O)OC1CCC2(C)C(CCC3C2CC(OC(C)=O)C2(C)C3C[C@@H]3O[C@]4(CC[C@@H](C)CO4)[C@@H](C)C32)C1 (stereo partly shown) — lower, 9.69%
- Cc1cc(C)c2c(CN3CCN(C)CC3)cc(=O)oc2c1 — lower, -48.5%
- Cc1ccc(S(=O)(=O)N2CCC(C(=O)OCC(=O)N(C)c3ccccc3)CC2)cc1C — lower, 9.41%
- Cc1ccc(-c2noc(CCC(=O)NC3CCCC3)n2)cc1 — lower, 11.1%
- COc1cc(C(=O)N2CCN(S(=O)(=O)c3cccc(F)c3)CC2)ccc1OCC(=O)N1CCOCC1 — lower, 11.7%
- COc1ccc(S(=O)(=O)N(C)c2ccc(C(=O)N3CCOCC3)cc2)cc1 — lower, -3.94%
- CC1C(=O)C(C)C(c2ccc(O)cc2)NC1c1ccc(O)cc1 (stereo not shown) — higher, 16.4%

— PMC4336329 (PLoS ONE, 2015)
